Measurements reported in the supplement of paper PMC9927326.
MIC of clinical C. albicans isolates, CLSI broth microdilution (ranges and time not stated); higher = less susceptible. Call: susceptible or wild type [S] / resistant or non-wild type [R] by CLSI breakpoints or epidemiological cut-offs; intermediate and dose-dependent carry no call here (the paper groups them with resistant). '<=' and '>=' mark each drug's lowest and highest value, inferred; the source prints them plain. Isolates are numbered anew.

Assays:
Assay in all cases: CLSI broth microdilution.
itraconazole = compound: CCC(C)n1ncn(-c2ccc(N3CCN(c4ccc(OCC5COC(Cn6cncn6)(c6ccc(Cl)cc6Cl)O5)cc4)CC3)cc2)c1=O [itraconazole]
micafungin = compound: CCCCCOc1ccc(-c2cc(-c3ccc(C(=O)N[C@H]4C[C@@H](O)[C@@H](O)NC(=O)[C@@H]5[C@@H](O)[C@@H](C)CN5C(=O)[C@H]([C@H](O)CC(N)=O)NC(=O)[C@H]([C@H](O)[C@@H](O)c5ccc(O)c(OS(=O)(=O)O)c5)NC(=O)[C@@H]5C[C@@H](O)CN5C(=O)[C@H]([C@@H](C)O)NC4=O)cc3)no2)cc1 [micafungin]
anidulafungin = compound: CCCCCOc1ccc(-c2ccc(-c3ccc(C(=O)N[C@H]4C[C@@H](O)[C@@H](O)NC(=O)[C@@H]5[C@@H](O)[C@@H](C)CN5C(=O)[C@H]([C@@H](C)O)NC(=O)[C@H]([C@H](O)[C@@H](O)c5ccc(O)cc5)NC(=O)[C@@H]5C[C@@H](O)CN5C(=O)[C@H]([C@@H](C)O)NC4=O)cc3)cc2)cc1 [anidulafungin]
posaconazole = compound: CC[C@@H]([C@H](C)O)n1ncn(-c2ccc(N3CCN(c4ccc(OC[C@@H]5CO[C@@](Cn6cncn6)(c6ccc(F)cc6F)C5)cc4)CC3)cc2)c1=O [posaconazole]
caspofungin = compound: CC[C@H](C)C[C@H](C)CCCCCCCCC(=O)N[C@H]1C[C@@H](O)[C@@H](NCCN)NC(=O)[C@@H]2[C@@H](O)CCN2C(=O)[C@H]([C@H](O)CCN)NC(=O)[C@H]([C@H](O)[C@@H](O)c2ccc(O)cc2)NC(=O)[C@@H]2C[C@@H](O)CN2C(=O)[C@H]([C@@H](C)O)NC1=O [caspofungin]
voriconazole = compound: C[C@@H](c1ncncc1F)[C@](O)(Cn1cncn1)c1ccc(F)cc1F [voriconazole]
amphotericin B = compound: C[C@@H]1[C@H](O)[C@@H](C)/C=C/C=C/C=C/C=C/C=C/C=C/C=C/[C@H](O[C@@H]2O[C@H](C)[C@@H](O)[C@H](N)[C@@H]2O)C[C@@H]2O[C@](O)(C[C@@H](O)C[C@@H](O)[C@H](O)CC[C@@H](O)C[C@@H](O)CC(=O)O[C@H]1C)C[C@H](O)[C@H]2C(=O)O [amphotericin B]
flucytosine = compound: Nc1[nH]c(=O)ncc1F [flucytosine]
fluconazole = compound: OC(Cn1cncn1)(Cn1cncn1)c1ccc(F)cc1F [fluconazole]

| Test System | MIC (itraconazole) | MIC (micafungin) | MIC (anidulafungin) | MIC (posaconazole) | MIC (caspofungin) | MIC (voriconazole) | MIC (amphotericin B) | MIC (flucytosine) | MIC (fluconazole) |
| --- | --- | --- | --- | --- | --- | --- | --- | --- | --- |
| Candida albicans isolate 124 (Erg11p: WT, Fur1p: WT, Tac1p: N896S) | 0.03 mg/L [S] | ≤ 0.008 mg/L [S] | ≤ 0.015 mg/L [S] | 0.015 mg/L [S] | 0.03 mg/L [S] | ≤ 0.008 mg/L [S] | 0.25 mg/L [S] | 0.12 mg/L [S] | 0.25 mg/L [S] |
| Candida albicans isolate 205 (Erg11p: K342R,E266D, Fur1p: WT, Tac1p: I558V,A377V,F189S,N174D,M170I,K87N) | ≤ 0.015 mg/L [S] | ≤ 0.008 mg/L [S] | ≤ 0.015 mg/L [S] | 0.015 mg/L [S] | 0.03 mg/L [S] | ≤ 0.008 mg/L [S] | 0.25 mg/L [S] | ≤ 0.06 mg/L [S] | 0.5 mg/L [S] |
| Candida albicans isolate 160 (Erg11p: V488I,E266D, Fur1p: WT, Tac1p: M170V,S108N) | 0.03 mg/L [S] | 0.015 mg/L [S] | 0.03 mg/L [S] | 0.015 mg/L [S] | 0.015 mg/L [S] | ≤ 0.008 mg/L [S] | 0.5 mg/L [S] | ≤ 0.06 mg/L [S] | 0.5 mg/L [S] |
| Candida albicans isolate 191 (Erg11p: WT, Fur1p: WT, Tac1p: N896S) | 0.03 mg/L [S] | ≤ 0.008 mg/L [S] | 0.12 mg/L [S] | 0.015 mg/L [S] | 0.03 mg/L [S] | ≤ 0.008 mg/L [S] | 0.25 mg/L [S] | ≤ 0.06 mg/L [S] | 0.25 mg/L [S] |
| Candida albicans isolate 134 (Erg11p: WT, Fur1p: WT, Tac1p: N896S,C858Y,N823K,I558V,F189S) | ≤ 0.015 mg/L [S] | 0.015 mg/L [S] | 0.03 mg/L [S] | 0.015 mg/L [S] | 0.015 mg/L [S] | ≤ 0.008 mg/L [S] | 0.5 mg/L [S] | ≤ 0.06 mg/L [S] | 0.5 mg/L [S] |
| Candida albicans isolate 101 (Erg11p: E266D, Fur1p: WT, Tac1p: N896S,I558V,P530L,A377V,F189S,N174D,M170I,K87N) | ≤ 0.015 mg/L [S] | 0.015 mg/L [S] | ≤ 0.015 mg/L [S] | 0.015 mg/L [S] | 0.03 mg/L [S] | ≤ 0.008 mg/L [S] | 0.25 mg/L [S] | ≤ 0.06 mg/L [S] | 0.5 mg/L [S] |
| Candida albicans isolate 82 (Erg11p: V488I,E266D, Fur1p: WT, Tac1p: N896S) | 0.03 mg/L [S] | 0.015 mg/L [S] | ≤ 0.015 mg/L [S] | 0.03 mg/L [S] | 0.015 mg/L [S] | ≤ 0.008 mg/L [S] | 0.5 mg/L [S] | ≤ 0.06 mg/L [S] | 0.5 mg/L [S] |
| Candida albicans isolate 344 (Erg11p: K342R,E266D, Fur1p: WT, Tac1p: I558V,A377V,F189S,N174D,M170I,K87N) | 0.03 mg/L [S] | 0.015 mg/L [S] | 0.06 mg/L [S] | 0.015 mg/L [S] | 0.03 mg/L [S] | ≤ 0.008 mg/L [S] | 0.25 mg/L [S] | ≤ 0.06 mg/L [S] | 0.25 mg/L [S] |
| Candida albicans isolate 247 (Erg11p: V437I,E266D, Fur1p: WT, Tac1p: S937L,I895T,A723T,L695F,I558V,F189S,L131I) | ≤ 0.015 mg/L [S] | 0.015 mg/L [S] | ≤ 0.015 mg/L [S] | 0.03 mg/L [S] | 0.03 mg/L [S] | ≤ 0.008 mg/L [S] | 0.5 mg/L [S] | ≤ 0.06 mg/L [S] | 0.5 mg/L [S] |
| Candida albicans isolate 327 (Erg11p: V488I,E266D, Fur1p: A6V, Tac1p: N896S) | 0.06 mg/L [S] | 0.015 mg/L [S] | 0.03 mg/L [S] | 0.03 mg/L [S] | 0.03 mg/L [S] | ≤ 0.008 mg/L [S] | 0.5 mg/L [S] | ≤ 0.06 mg/L [S] | 0.5 mg/L [S] |
| Candida albicans isolate 342 (Erg11p: V488I,E266D, Fur1p: WT, Tac1p: N896S,I558V,A377V,F189S,N174D,M170I,K87N) | ≤ 0.015 mg/L [S] | 0.015 mg/L [S] | 0.06 mg/L [S] | 0.015 mg/L [S] | 0.03 mg/L [S] | ≤ 0.008 mg/L [S] | 0.25 mg/L [S] | ≤ 0.06 mg/L [S] | 0.5 mg/L [S] |
| Candida albicans isolate 369 (Erg11p: WT, Fur1p: WT, Tac1p: WT) | 0.03 mg/L [S] | ≤ 0.008 mg/L [S] | 0.06 mg/L [S] | 0.015 mg/L [S] | 0.03 mg/L [S] | ≤ 0.008 mg/L [S] | 0.5 mg/L [S] | ≤ 0.06 mg/L [S] | 0.5 mg/L [S] |
| Candida albicans isolate 180 (Erg11p: E266D,G129A, Fur1p: WT, Tac1p: R869Q,L695F,I558V,A377V,F189S,M170V,L131I) | 0.03 mg/L [S] | ≤ 0.008 mg/L [S] | 0.06 mg/L [S] | 0.015 mg/L [S] | 0.03 mg/L [S] | ≤ 0.008 mg/L [S] | 0.5 mg/L [S] | ≤ 0.06 mg/L [S] | 0.5 mg/L [S] |
| Candida albicans isolate 346 (Erg11p: V488I,E266D, Fur1p: WT, Tac1p: N896S,A377V,F189S,N174D,M170I,K87N) | 0.03 mg/L [S] | 0.015 mg/L [S] | 0.06 mg/L [S] | 0.015 mg/L [S] | 0.03 mg/L [S] | ≤ 0.008 mg/L [S] | 0.5 mg/L [S] | ≤ 0.06 mg/L [S] | 0.25 mg/L [S] |
| Candida albicans isolate 90 (Erg11p: WT, Fur1p: WT, Tac1p: N896S) | ≤ 0.015 mg/L [S] | ≤ 0.008 mg/L [S] | ≤ 0.015 mg/L [S] | 0.015 mg/L [S] | 0.015 mg/L [S] | ≤ 0.008 mg/L [S] | 0.25 mg/L [S] | ≤ 0.06 mg/L [S] | 0.25 mg/L [S] |
| Candida albicans isolate 49 (Erg11p: V488I,E266D, Fur1p: WT, Tac1p: N896S,I895T) | 0.06 mg/L [S] | 0.015 mg/L [S] | 0.03 mg/L [S] | 0.03 mg/L [S] | 0.06 mg/L [S] | 0.06 mg/L [S] | 0.5 mg/L [S] | 0.12 mg/L [S] | 0.5 mg/L [S] |
